# Laboratory results published in the supplement of paper PMC3334620.
# Over roughly 33,000 sequences, “E-score (-0.5 to 0.5)” has its median near -0.016; the highest 2% begin near 0.32. Some of the results follow.
# Biological target: T1, Stp1 (UniProt B3LFK1)
# T1 sequence: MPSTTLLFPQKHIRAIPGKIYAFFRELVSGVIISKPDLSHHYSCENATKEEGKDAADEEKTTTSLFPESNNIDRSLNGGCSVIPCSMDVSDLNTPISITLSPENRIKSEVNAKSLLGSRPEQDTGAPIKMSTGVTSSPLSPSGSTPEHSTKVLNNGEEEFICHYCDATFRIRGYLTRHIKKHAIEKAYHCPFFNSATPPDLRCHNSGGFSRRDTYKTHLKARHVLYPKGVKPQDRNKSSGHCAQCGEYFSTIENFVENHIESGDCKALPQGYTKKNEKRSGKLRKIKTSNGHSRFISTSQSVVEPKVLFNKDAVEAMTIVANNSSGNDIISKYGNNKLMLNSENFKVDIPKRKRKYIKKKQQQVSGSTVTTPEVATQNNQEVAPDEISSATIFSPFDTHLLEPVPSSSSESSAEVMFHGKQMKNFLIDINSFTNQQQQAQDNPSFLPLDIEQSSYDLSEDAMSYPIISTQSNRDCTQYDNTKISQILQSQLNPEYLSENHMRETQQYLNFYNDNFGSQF
# Assay: PBM E-score (8-mer binding enrichment) (E-score (-0.5 to 0.5)); higher = stronger / more preferred TF binding; most listed sequences are background and not binding sites
# Conditions: protein concentration: 200 nM; construct: GST-full length
# Outline: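 E-scores (a modified Wilcoxon-Mann-Whitney statistic) were assigned by the Universal PBM Analysis Suite to every ungapped eight-base word pooled with its reverse complement. The input came from universal all-10-mer Agilent arrays made double-stranded by primer extension and probed with GST-tagged yeast transcription factors at about 100-200 nM. Fluorescent anti-GST detected bound protein, and masliner normalised the scans.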
row,Sequence,PBM E-score
1,AGACTCGG,-0.332
2,TATGCTGA,0.00188
3,ACTGCAAA,0.0211
4,CCCTAACC,-0.0451
5,CCTGGCAG,-0.189
6,CCGTGGAA,0.249
7,CCGGTTCC,-0.0976
8,ACTTATCG,-0.107
9,CGAGCCCG,-0.0629
10,CCTACTAA,-0.0697
11,TGCGAGAA,-0.203
12,ACCACGGA,-0.0752
13,GCAGTGCA,-0.0796
14,TAACTGAA,0.00319
15,CTGAGCTA,-0.238
16,ACTTTTCG,0.144
17,TTAGAAAA,0.0226
18,CACTTGTA,0.0432
19,CAGTATCA,0.0382
20,ATGCCACG,0.275
21,GTATGGCA,0.134
22,GTCAGCTA,-0.175

row,Sequence,PBM E-score
1,ATATTGTG,0.0646
2,ATTAACAG,0.0966
3,AGAGGCAC,0.366
4,CAGTTCAC,-0.0554
5,GTGCGCGA,0.0326
6,CACACAAA,0.148
7,ACTGGCCT,-0.306
8,TAAATATA,0.303
9,GCTTGGCA,-0.156
10,GTCAAAAA,0.0881
11,CTTCGAGA,-0.0597
12,CCTAGTCA,-0.249
13,AAAGTGAC,-0.0288
14,ACGACAAG,-0.0648
15,GACAGTCC,-0.261
16,ACAGGCGG,0.0165
17,AGGTACGG,0.15
18,ATGACATG,-0.118
19,CAGAGTAG,0.00396
20,ACGGCTGG,0.139
21,CGCTGATA,0.0661
22,CATTAACA,0.134

row,Sequence,PBM E-score
1,CGACTGAG,-0.139
2,AGTGGAAT,0.0574
3,CCCCGCCG,0.0774
4,GAGTTGTA,-0.0134
5,ATAACTTA,0.212
6,CATCATGA,-0.0811
7,ACGACTCC,-0.258
8,AACCGCAG,-0.218
9,CATTGTAA,0.0175
10,ACCGCTGC,-0.0821
11,AACCGAGG,-0.205
12,CGTTCCTC,0.0526
13,CACTGTTA,-0.159
14,CATCAGTA,-0.121
15,AGCTGAAT,-0.0291
16,CCTAACGC,0.278
17,CTGACCTA,-0.204
18,GGAGGGCC,-0.285
19,ACCACACA,0.00829
20,ATAACCTG,-0.319
21,ATGATTGA,0.0524
22,ACAGCTGC,-0.0656

row,Sequence,PBM E-score
1,AAATTGTT,0.179
2,ATCTGCCA,-0.102
3,CTCGCTTA,0.0689
4,CCACGCAC,0.07
5,ATATGGTC,-0.0332
6,AAGCGGGC,-0.248
7,ATACCTCG,0.108
8,CCTATCGC,0.0771
9,AAGTCGCA,0.0561
10,CCATAAGC,-0.0877
11,AATCGCGA,0.0407
12,CCGATCCG,-0.00424
13,TATGTCAA,0.151
14,AGACGGCA,0.449
15,ATGGCGCC,0.34
16,CACTGTAG,0.222
17,ACTCGACC,-0.222
18,ATAGATAA,0.113
19,CCGGTAAA,-0.0175
20,AAGAGAGC,-0.12
